# Measured values: US20190330365A1 (University of California, published 2019)
# T1: Activated leukocyte cell adhesion molecule (ALCAM), on cells (human, UniProt Q13740 28-583)
# T1 construct: whole, on cells; also called guide antigen
# T1 sequence (looked up): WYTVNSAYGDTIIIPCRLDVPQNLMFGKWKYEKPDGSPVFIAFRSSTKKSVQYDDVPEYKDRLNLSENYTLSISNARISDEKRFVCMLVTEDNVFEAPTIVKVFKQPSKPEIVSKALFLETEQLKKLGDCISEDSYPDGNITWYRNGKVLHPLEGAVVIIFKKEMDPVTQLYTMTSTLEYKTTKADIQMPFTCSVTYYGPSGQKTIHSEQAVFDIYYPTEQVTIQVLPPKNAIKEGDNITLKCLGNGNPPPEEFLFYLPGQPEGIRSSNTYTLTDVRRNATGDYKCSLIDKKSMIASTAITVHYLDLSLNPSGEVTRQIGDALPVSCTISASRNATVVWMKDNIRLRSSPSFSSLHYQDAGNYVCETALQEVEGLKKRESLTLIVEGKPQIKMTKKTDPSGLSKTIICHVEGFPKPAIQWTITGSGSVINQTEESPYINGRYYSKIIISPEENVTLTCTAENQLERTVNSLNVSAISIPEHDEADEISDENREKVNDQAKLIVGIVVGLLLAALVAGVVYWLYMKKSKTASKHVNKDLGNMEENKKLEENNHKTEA
# B1: M10A12/E34N19 TaFv-Fc (bispecific antibody)
# chain: QVQLVESGGGVVQPGRSLRLSCTASGFTFSSYGMHWVRQAPGKGLEWVAVISYDGSNKYYADSVKGRFTISRDNSKNTLYLQMNSLRAEDTAVYYCARGGRYSSNWFSYYYYGMDVWGQGTTVTVSSGGGGSGGGGSGGGGSSELTQDPAVSVALGQTVRITCQGDSLRSYYASWYQQKPGQAPLLVIYGENNRPSGIPDRFSGSSSGNTAFLTISRVEAGDEADYYCQVWDSSSDHPGVVFGGGTKVTVLGGGGSGGGGSGGGGSGGGGSGGGGSQVNLRESGGGLVQPGGSLRLSCAASGFTFSSYAMSWVRQAPGKGLEWVSAISGSGGSTYYADSVKGRFTISRDNSKNTLYLQMNSLRAEDTAVYYCAKVRGHGGNSGWVDYWGQGTLVTVSSGGGGSGGGGSGGGGSQSVLTQDPAVSVALGQTVKITCQGDSLRTYYTSWYQQRPGQAPILVLYANTHRPSSIPDRFSGSSSGTTASLTITGAQAEDEADYYCNSRDSSGNYLFGGGTKLTVL[letters of human IgG1 Fc not shown]
# notes: domain: Fc; Tandem scFv-Fc; also called ICAM-1-guided bispecific
# B2: H3/E34N19 TaFv-Fc (bispecific antibody)
# chain: QVQLVESGGGLVQPGGSLRLSCAASGFTFSSYAMSWVRQAPGKGLEWVSAISGSGGSTYYADSVKGRFTISRDNSKDTLYLQMNSLRAEDTAVYYCASRSLLDYWGQGTLVTVSSGGGGSGGGGSGGGGSNFMLTQNPAVSVALGQTVRITCQGDSLRSYYASWYQQKPGQAPLLVIYGKNNRPSGIPDRFSGSSSGNTASLTITGAQAEDEADYYCNSRDSSGNPVFGGGTKVTVLGGGGSGGGGSGGGGSGGGGSGGGGSQVNLRESGGGLVQPGGSLRLSCAASGFTFSSYAMSWVRQAPGKGLEWVSAISGSGGSTYYADSVKGRFTISRDNSKNTLYLQMNSLRAEDTAVYYCAKVRGHGGNSGWVDYWGQGTLVTVSSGGGGSGGGGSGGGGSQSVLTQDPAVSVALGQTVKITCQGDSLRTYYTSWYQQRPGQAPILVLYANTHRPSSIPDRFSGSSSGTTASLTITGAQAEDEADYYCNSRDSSGNYLFGGGTKLTVL[letters of human IgG1 Fc not shown]
# notes: domain: Fc; Tandem scFv-Fc from pFUSE-T-scFv-Fc: guide scFv, (Gly4Ser)5, anti-LRP6 scFv, Fc; also called H/6 TaFv-Fc; ALCAM-guided bispecific
# B3: PD32/E34N19 TaFv-Fc (bispecific antibody)
# chain: QVQLQESGGGLVQPGGSLRLSCAASGFTFSSYALSWVRQAPGKGLEWVSAISGSGGSTYYAGSVKGRFTISRDNSKNTLYLQMNSLRAEDTAVYYCAKGLIASHWGQGTLVTVSSGGGGSGGGGSGGGGSSELTQDPAVSVALGQTVRITCQGDSLRSYYASWYQQKPGQAPVLVIYGKNNRPSGIPDRFSGSSSGNTASLTITGAQAEDEADYYCNSRDSSGIHLVFGGGTKLTVLGGGGSGGGGSGGGGSGGGGSGGGGSQVNLRESGGGLVQPGGSLRLSCAASGFTFSSYAMSWVRQAPGKGLEWVSAISGSGGSTYYADSVKGRFTISRDNSKNTLYLQMNSLRAEDTAVYYCAKVRGHGGNSGWVDYWGQGTLVTVSSGGGGSGGGGSGGGGSQSVLTQDPAVSVALGQTVKITCQGDSLRTYYTSWYQQRPGQAPILVLYANTHRPSSIPDRFSGSSSGTTASLTITGAQAEDEADYYCNSRDSSGNYLFGGGTKLTVL[letters of human IgG1 Fc not shown]
# notes: domain: Fc; Tandem scFv-Fc
# B4: RYR/E34N19 TaFv-Fc (bispecific antibody)
# chain: QVQLQESGGGLVQPGGSLRLSCAASGFTFSSYSMNWVRQAPGKGLEWVSYISSSSSTIYYADSVKGRFTISRDNAKNSLYLQMNSLRAEDTAVYYCARYRLPDFWSGYPNYGMDVWGQGTTVTVSSGGGGSGGGGSGGGGSQSVLTQPPSVSGAPGQRVTISCTGSSSNIGAGYDVHWYQQLPGTAPKLLIYGNSNRPSGVPDRFSGSKSGTSASLAITGLQAEDEADYYCQSYDSSLSGHVVFGGGTKLTVLGGGGSGGGGSGGGGSGGGGSGGGGSQVNLRESGGGLVQPGGSLRLSCAASGFTFSSYAMSWVRQAPGKGLEWVSAISGSGGSTYYADSVKGRFTISRDNSKNTLYLQMNSLRAEDTAVYYCAKVRGHGGNSGWVDYWGQGTLVTVSSGGGGSGGGGSGGGGSQSVLTQDPAVSVALGQTVKITCQGDSLRTYYTSWYQQRPGQAPILVLYANTHRPSSIPDRFSGSSSGTTASLTITGAQAEDEADYYCNSRDSSGNYLFGGGTKLTVL[letters of human IgG1 Fc not shown]
# notes: domain: Fc; Tandem scFv-Fc; also called anti-EphA2/LRP6E3E4; anti-EphA2/LRP6 bispecific
# How the values were obtained:
# [1] = biological target: T2, Intercellular adhesion molecule 1 (ICAM-1), human, on cells (human, UniProt P05362 28-532); test: apparent KD, flow cytometry, curve fit; cell model HEK293-ICAM-1^Int (cells also carry LRP6, bound by the E34N19 arm)
# T2 construct: whole, on cells; also called guide antigen
# Method: (§1) The apparent antibody binding affinity was measured on target cells by FACS as described (An, Zhu). Briefly, 3×10⁵ cells were incubated with varying concentrations of antibodies in final 1 ml of FACS buffer. […] After 1 hr incubation, cells were washed and analyzed by FACS as described above. The apparent KD was determined by a curve fit method using MFI values as described (Benedict, An, Zhu).
# [2] = biological target: T2, Intercellular adhesion molecule 1 …; test: apparent KD, flow cytometry, curve fit; cell model HEK293-ICAM-1^low (cells also carry LRP6, bound by the E34N19 arm)
# Method: as §1
# [3] = biological target: T3, Low-density lipoprotein receptor-related protein 6 (LRP6), human, on cells (human, UniProt O75581 20-1613); test: cell-based or functional assay
# [4] = biological target: T1, Activated leukocyte cell adhesion …; test: apparent KD, flow cytometry, curve fit; cell model HEK293-ALCAM^Int (cells also carry LRP6, bound by the E34N19 arm)
# Method: as §1
# [5] = biological target: T1, Activated leukocyte cell adhesion …; test: apparent KD, flow cytometry, curve fit; cell model HEK293 (cells also carry LRP6, bound by the E34N19 arm)
# Method: FIGS. 8A-8D depict the results illustrating improved binding and Wnt signaling blockade of guided anti-LRP6 bsAbs. […] HEK293 cells were incubated with varying concentration of H3/E34N19 (A) or PD32/E34N19 (B) TaFv-Fc and analyzed by flow cytometry. Apparent KD values were calculated based on the non-linear curve fittings. FIG. 8C depicts STF reporter assays on HEK293 cells. E34N19 IgG and E34N19/H3 bsIgG were evaluated for their β-catenin reporter inhibition efficacies on Wnt3a-transfected HEK293 cells. […] Values represent mean±SD for n=3. FIG. 8D depicts LRP6 occupancy when bound by bispecific vs, monospecific antibodies. HEK293 cells were incubated with the either the bispecific H3/E34N19 or the monospecific E34N19, and unoccupied LRP6 binding sites were detected by biotin-labeled E34N19 scFv-Fc. Normalized MFI from unoccupied sites over total is used to calculate the percent of the unoccupied effector antigen LRP6, from which the occupancy was calculated (100%−% unoccupied). Incubation with the anti-guide antibody only (H3) has no effect on the occupancy of the effector antigen (LRP6). […]
# The apparent antibody binding affinity was measured on target cells by FACS as described (An, Zhu). […] After 1 hr incubation, cells were washed and analyzed by FACS as described above. The apparent KD was determined by a curve fit method using MFI values as described (Benedict, An, Zhu).
# [6] = biological target: T3, Low-density lipoprotein …; test: cell-based or functional assay; remark: listed apart in the source
# [7] = biological target: T1, Activated leukocyte cell adhesion …; test: apparent KD, flow cytometry, curve fit; cell model HEK293-ALCAM^low (cells also carry LRP6, bound by the E34N19 arm)
# Method: as §1
# [8] = biological target: T4, Ephrin type-A receptor 2 (EphA2), human, on cells (human, UniProt P29317 24-976); test: apparent KD, flow cytometry, curve fit; cell model HEK293-EphA2^low (cells also carry LRP6, bound by the E34N19 arm)
# T4 construct: whole, on cells; also called guide antigen
# Method: as §1
# [9] = biological target: T4, Ephrin type-A receptor 2 (EphA2), …; test: apparent KD, flow cytometry, curve fit; cell model HEK293-EphA2#8 (cells also carry LRP6, bound by the E34N19 arm)
# Method: as §1
# The impact of the guide antigen density on the apparent KD of the bispecific was also evaluated (Table 2). For the ALCAM-guided bispecific, increasing guide antigen density concurs with increasing potency. […] Other mechanisms beyond avidity-driven apparent KD improvement may account for the bispecific phenomenon that we have observed. […] To test this hypothesis, LRP6 occupancy was investigated by the bispecific and monospecific on HEK293 cells. […] At the same concentration, only about 10% of LRP6 was occupied by the monospecific E34N19. The concentration required to achieve 50% occupancy of the effector LRP6 is about 50 pM for the bispecific but 20 nM for the monospecific, a difference of greater than 400-fold (FIG. 8D).
# [10] = biological target: T4, Ephrin type-A receptor 2 (EphA2), …; test: apparent KD, flow cytometry, curve fit; cell model HEK293-EphA2^Int (cells also carry LRP6, bound by the E34N19 arm)
# Method: as §1
# [11] = biological target: T4, Ephrin type-A receptor 2 (EphA2), …; test: apparent KD, flow cytometry, curve fit; cell model HEK293-EphA2^high (cells also carry LRP6, bound by the E34N19 arm)
# Method: as §1
# [12] = biological target: T4, Ephrin type-A receptor 2 (EphA2), …; test: apparent KD, flow cytometry, curve fit; cell model HEK293-EphA2 (cells also carry LRP6, bound by the E34N19 arm)
# Method: as §1
# T4 sequence (P29317 24-976): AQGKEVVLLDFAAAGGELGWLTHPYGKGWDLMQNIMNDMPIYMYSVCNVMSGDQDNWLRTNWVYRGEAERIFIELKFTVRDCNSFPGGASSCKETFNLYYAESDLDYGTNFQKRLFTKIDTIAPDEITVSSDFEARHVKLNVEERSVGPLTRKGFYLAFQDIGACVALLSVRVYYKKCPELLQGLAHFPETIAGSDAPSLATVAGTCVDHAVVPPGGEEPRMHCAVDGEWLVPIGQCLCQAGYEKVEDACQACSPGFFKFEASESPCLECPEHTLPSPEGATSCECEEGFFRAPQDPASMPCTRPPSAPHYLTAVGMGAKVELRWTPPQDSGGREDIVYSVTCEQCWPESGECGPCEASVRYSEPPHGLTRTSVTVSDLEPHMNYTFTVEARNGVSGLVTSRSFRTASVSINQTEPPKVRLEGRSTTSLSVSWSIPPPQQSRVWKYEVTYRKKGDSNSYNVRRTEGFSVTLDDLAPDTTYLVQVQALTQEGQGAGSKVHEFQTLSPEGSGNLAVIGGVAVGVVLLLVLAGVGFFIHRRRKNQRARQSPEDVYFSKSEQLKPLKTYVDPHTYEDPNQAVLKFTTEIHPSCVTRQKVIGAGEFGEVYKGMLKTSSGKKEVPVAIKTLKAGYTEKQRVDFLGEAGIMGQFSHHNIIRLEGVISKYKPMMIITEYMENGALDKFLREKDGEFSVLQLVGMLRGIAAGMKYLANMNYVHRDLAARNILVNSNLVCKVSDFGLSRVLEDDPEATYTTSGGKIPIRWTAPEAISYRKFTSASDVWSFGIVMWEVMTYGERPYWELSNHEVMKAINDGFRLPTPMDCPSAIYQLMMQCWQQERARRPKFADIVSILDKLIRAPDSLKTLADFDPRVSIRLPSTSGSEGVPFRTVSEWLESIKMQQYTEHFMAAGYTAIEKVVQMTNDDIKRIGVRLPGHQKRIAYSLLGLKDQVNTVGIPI
# T3 sequence (O75581 20-1613): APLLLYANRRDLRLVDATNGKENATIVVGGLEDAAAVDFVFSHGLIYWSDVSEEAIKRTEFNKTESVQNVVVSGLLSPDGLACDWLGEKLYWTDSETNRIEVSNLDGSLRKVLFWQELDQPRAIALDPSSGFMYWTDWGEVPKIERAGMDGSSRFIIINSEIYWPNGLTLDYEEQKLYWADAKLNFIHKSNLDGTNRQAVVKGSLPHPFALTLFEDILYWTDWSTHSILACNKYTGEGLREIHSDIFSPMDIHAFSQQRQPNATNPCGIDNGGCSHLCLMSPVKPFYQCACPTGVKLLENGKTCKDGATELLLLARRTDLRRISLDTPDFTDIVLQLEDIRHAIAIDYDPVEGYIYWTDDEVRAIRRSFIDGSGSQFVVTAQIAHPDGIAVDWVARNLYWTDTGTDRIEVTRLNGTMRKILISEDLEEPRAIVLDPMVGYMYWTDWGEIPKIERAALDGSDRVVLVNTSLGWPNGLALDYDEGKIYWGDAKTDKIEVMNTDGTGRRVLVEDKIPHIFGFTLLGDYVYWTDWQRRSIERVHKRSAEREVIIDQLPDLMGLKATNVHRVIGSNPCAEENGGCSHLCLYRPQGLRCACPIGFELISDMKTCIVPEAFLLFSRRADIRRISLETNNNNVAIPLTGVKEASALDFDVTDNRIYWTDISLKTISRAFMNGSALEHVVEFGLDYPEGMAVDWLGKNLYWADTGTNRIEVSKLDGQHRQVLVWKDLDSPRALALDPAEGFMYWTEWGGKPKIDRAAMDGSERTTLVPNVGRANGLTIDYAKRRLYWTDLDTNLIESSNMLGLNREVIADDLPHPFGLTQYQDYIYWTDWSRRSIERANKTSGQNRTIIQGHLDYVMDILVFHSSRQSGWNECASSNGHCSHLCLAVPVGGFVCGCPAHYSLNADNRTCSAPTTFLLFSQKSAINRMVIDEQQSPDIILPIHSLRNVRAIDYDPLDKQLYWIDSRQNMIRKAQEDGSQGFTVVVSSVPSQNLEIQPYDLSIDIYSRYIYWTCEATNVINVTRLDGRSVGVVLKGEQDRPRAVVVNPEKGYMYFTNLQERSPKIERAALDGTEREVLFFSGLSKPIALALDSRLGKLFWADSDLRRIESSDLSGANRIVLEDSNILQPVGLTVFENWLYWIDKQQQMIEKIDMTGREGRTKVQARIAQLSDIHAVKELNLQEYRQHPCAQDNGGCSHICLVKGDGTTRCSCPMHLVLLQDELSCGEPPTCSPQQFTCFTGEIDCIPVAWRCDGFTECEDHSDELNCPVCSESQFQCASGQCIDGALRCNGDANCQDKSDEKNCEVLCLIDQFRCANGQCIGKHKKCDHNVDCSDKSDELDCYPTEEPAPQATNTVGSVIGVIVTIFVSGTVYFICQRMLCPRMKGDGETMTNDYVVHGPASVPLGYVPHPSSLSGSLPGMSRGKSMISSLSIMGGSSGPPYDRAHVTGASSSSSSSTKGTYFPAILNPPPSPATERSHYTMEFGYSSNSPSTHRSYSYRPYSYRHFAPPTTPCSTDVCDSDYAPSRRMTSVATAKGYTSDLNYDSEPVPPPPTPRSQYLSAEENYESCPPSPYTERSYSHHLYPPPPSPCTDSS
# T2 sequence (P05362 28-532): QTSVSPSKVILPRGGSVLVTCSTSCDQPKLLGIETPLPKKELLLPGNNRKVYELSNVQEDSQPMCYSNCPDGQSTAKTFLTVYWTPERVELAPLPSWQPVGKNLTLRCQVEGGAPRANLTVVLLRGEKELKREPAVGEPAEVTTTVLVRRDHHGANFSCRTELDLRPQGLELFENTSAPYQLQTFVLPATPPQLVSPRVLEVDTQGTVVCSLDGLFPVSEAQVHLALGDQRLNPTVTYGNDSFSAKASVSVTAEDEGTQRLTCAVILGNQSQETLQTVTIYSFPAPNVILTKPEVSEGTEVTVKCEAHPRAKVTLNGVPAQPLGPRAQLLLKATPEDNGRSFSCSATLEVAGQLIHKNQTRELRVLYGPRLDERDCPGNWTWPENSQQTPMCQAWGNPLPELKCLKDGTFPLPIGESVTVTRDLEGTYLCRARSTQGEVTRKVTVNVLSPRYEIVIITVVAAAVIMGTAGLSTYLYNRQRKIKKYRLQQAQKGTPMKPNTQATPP
binder,measurement,setting,value
B1,Kd,[1],843 pM
same,Kd,[2],871 pM
same,"IC50 (pM), anti-Wnt signaling activity, STF reporter; cell model HEK293",[3],1180 pM
same,"IC50 (pM), anti-Wnt signaling activity, STF reporter; cell model HEK293-ICAM-1^Int",[3],3.76 pM
same,"IC50 (pM), anti-Wnt signaling activity, STF reporter; cell model HEK293-ICAM-1^high",[3],1.13 pM
same,"IC50 (pM), anti-Wnt signaling activity, STF reporter; cell model HEK293-ICAM-1^low",[3],16.9 pM
B2,Kd,[4],45.2 pM
same,Kd,[5],28 pM
same,"fold potency against monospecific E34N19 scFv-Fc, Wnt3a-induced STF reporter, A549",[6],> 100 fold
same,"IC50 (pM), anti-Wnt signaling activity, STF reporter; cell model HEK293",[3],15.1 pM
same,"IC50 (pM), anti-Wnt signaling activity, STF reporter; cell model HEK293-ALCAM^Int",[3],67.8 pM
same,"IC50 (pM), anti-Wnt signaling activity, STF reporter; cell model HEK293-ALCAM^low",[3],141 pM
same,Kd,[7],136 pM
B3,Kd,[5],578 pM
same,"IC50 (pM), anti-Wnt signaling activity, STF reporter; cell model HEK293",[3],119 pM
B4,Kd,[8],18100 pM
same,Kd,[9],1120 pM
same,Kd,[10],4730 pM
same,"IC50 (pM), anti-Wnt signaling activity, STF reporter; cell model HEK293",[3],1350 pM
same,"IC50 (pM), anti-Wnt signaling activity, STF reporter; cell model HEK293-EphA2",[3],4.15 pM
same,"IC50 (pM), anti-Wnt signaling activity, STF reporter; cell model HEK293-EphA2#8",[3],8.36 pM
same,"IC50 (pM), anti-Wnt signaling activity, STF reporter; cell model HEK293-EphA2^Int",[3],12.7 pM
same,"IC50 (pM), anti-Wnt signaling activity, STF reporter; cell model HEK293-EphA2^high",[3],6.55 pM
same,"IC50 (pM), anti-Wnt signaling activity, STF reporter; cell model HEK293-EphA2^low",[3],24.4 pM
same,Kd,[11],1550 pM
same,Kd,[12],787 pM
